# Out of some 110,000 compounds screened, about 230 (0.21%) showed an effect of 50% or more. This is one part of the list.
# Molecular target: DPAP1 (Plasmodium falciparum, UniProt Q8IIJ9)
# Assay: primary screen, percent inhibition; read by cleavage of a fluorogenic dipeptide substrate; higher = more effect of the substance
# Parameters: species or system P. falciparum D10 trophozoite lysates; single well
# 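Also: 30 min substrate incubation versus DMSO and 10 µM JCP410 controls.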
# Sequence of DPAP1 (Q8IIJ9 whole entry, looked up): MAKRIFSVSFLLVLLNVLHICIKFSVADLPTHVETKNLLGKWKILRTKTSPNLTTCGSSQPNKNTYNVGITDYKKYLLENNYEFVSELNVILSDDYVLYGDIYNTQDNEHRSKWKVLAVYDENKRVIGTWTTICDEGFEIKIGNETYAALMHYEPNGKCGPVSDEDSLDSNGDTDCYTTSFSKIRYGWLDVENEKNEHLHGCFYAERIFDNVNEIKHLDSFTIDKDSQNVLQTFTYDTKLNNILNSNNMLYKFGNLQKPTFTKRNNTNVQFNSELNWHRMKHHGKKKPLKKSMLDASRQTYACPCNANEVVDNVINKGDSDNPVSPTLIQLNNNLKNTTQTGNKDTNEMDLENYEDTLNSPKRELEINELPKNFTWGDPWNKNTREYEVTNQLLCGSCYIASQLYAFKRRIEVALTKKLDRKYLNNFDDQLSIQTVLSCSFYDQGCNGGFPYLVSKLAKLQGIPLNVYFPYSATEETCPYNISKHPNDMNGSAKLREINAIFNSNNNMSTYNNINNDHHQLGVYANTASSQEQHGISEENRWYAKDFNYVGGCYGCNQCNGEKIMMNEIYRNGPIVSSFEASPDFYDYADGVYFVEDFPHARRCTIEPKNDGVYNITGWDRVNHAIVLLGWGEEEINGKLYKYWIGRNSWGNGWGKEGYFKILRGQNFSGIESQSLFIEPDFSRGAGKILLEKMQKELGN
row,Structure (SMILES),% Inhibition @ 10 uM
1,CC(C)(C)CC(=O)NCc1nc(-c2ccccc2)no1,-4.82%
2,CN(CC(=O)NCc1cccnc1)S(=O)(=O)c1cc(Br)cnc1N,-5.37%
3,COc1ccccc1-n1c(CN2CCN(Cc3ccccc3)CC2)nc2ccccc2c1=O,0.245%
4,COCCCNC(=O)c1c(C(=O)O)c(-c2ccccc2)n2c1-c1ccccc1C2,-2.83%
5,O=C1c2ccccc2C(=O)N1CSc1n[nH]c(-c2ccccc2)n1,0.76%
6,CCC(C)NC(=O)CS(=O)(=O)Cc1nc(-c2ccc(C)cc2)oc1C (stereo not shown),-1.89%
7,CCOC1=NC2Nc3ccccc3N(CC)C2C1c1ccccc1 (stereo not shown),7.96%
8,O=C(Nc1nc(-c2ccc(F)cc2F)cs1)c1cccc(F)c1F,1.76%
9,O=P(O)(c1ccccc1)C1CCCCN1 (stereo not shown),3.83%
10,CC(C)(C)c1ccc2oc(-c3ccc(N)cc3)nc2c1,3.9%
11,CCc1ccc(OCC(=O)Nc2sc(C)c(C)c2C(N)=O)cc1,4.3%
12,O=C(Nc1ncc(CN2CCOCC2)s1)C(c1ccccc1)c1ccccc1,-3.71%
13,Cc1c(Br)c(C(=O)Nc2ccn(C34CC5CC(CC(C5)C3)C4)n2)nn1C,-6.81%
14,Cc1[nH]c(-c2ccc(F)cc2)cc1C(=O)N1CCC(C)CC1,0.522%
15,Cc1ccc(O)c(-c2cc(-c3ccc(Cl)cc3)[nH]n2)c1,-1.96%
16,O=C(Cn1nc(-c2ccc(Cl)cc2)c2ccccc2c1=O)NCC1CCCO1 (stereo not shown),-7.8%
17,COc1ccc(C2CC(=O)C(/C=N/CCN3CCN(C4OC(=O)c5ccccc54)CC3)=C(O)C2)cc1 (stereo not shown),2.24%
18,CCN1CCN(C(=O)C2(C)CCCCC2)CC1,-1.36%
19,CC(C)C(C(=O)O)N1Cc2ccc(C(=O)O)cc2C1=O (stereo not shown),2.6%
20,COc1ccccc1NC(=O)COc1ccc(Cl)cc1,-3.69%
21,CC(C)c1ccc(N2CCN(C(N)=O)CC2)cc1,5.08%
22,Cc1nc2nc(NC(=O)c3cccc(Cl)c3)nn2c(O)c1C,3.66%
23,Cc1ccc(S(=O)(=O)N2CC(C)N(S(=O)(=O)c3ccc(C)cc3C)CC2C)c(C)c1 (stereo not shown),2.03%
24,O=C(NC(=O)C12CC3CC(CC(C3)C1)C2)N1CCCCC1,4.73%
25,COc1cccc(/C=C2\SC(Nc3ccccc3)=NC2=O)c1OC(C)C,-1.22%

row,Structure (SMILES),% Inhibition @ 10 uM
1,COc1ccc(Cn2c(C(=O)O)c(CNC(C)CCc3ccccc3)c3ccc(C)cc32)cc1 (stereo not shown),9.65%
2,CCOC(=O)c1c(NC(=O)c2ccc(F)cc2)sc2c1CCN(C(C)=O)C2,1.88%
3,NS(=O)(=O)c1ccc2oc3ccc(S(N)(=O)=O)cc3c2c1,-8.21%
4,O=C(NCc1cccs1)c1cc(S(=O)(=O)N2CCOCC2)ccc1F,-1.99%
5,CCOC(=O)N1CCN(CC(O)COC2CC(C)CC(C)(C)C2)CC1 (stereo not shown),-0.968%
6,COc1ccc(C2C=C(c3ccc(C(C)C)cc3)Nc3nnnn32)cc1OC (stereo not shown),3.45%
7,CCOC(=O)C1=C(CNCC2CCCO2)NC(=O)NC1c1ccc(C)cc1 (stereo not shown),-1.03%
8,NS(=O)(=O)c1ccc(CNC(=O)c2cc(-c3ccccc3)nc3ccccc23)cc1,2.76%
9,O=[N+]([O-])c1ccc(CN2CCCCCCC2)s1,0.605%
10,CCN(CC)CCCNC(=O)c1cccs1,3.48%
11,CS(=O)(=O)N(CC(=O)N1CCc2ccccc2C1)c1ccc(Br)cc1,3.35%
12,Cn1c(=O)c2c(-c3ccccc3Cl)n(C3CCCCC3)cc2n(C)c1=O,2.02%
13,Cc1ccc2nc(NC(=O)c3c(O)c4c(n(Cc5ccco5)c3=O)CCCC4)sc2c1,4.35%
14,COC(=O)c1c(C)oc2ccc(O)c(CN3CCC(C)CC3)c12,3.74%
15,COc1cc(Br)c(C2C(C#N)=C(N)Oc3[nH]nc(-c4cccnc4)c32)cc1OC (stereo not shown),-0.725%
16,CC(C)N(C(=O)c1ccc(C(=O)N(C)C)cc1)C(C)C,-1.48%
17,CC1CCCCC1NC(=O)C1CC=CCC1C(=O)O (stereo not shown),-4.69%
18,CCC(C)Nc1nc(Cl)nc(N2CCOCC2)n1 (stereo not shown),-1.48%
19,COc1ccc(/C=C2/SC(Nc3ccccc3Cl)=NC2=O)cc1OC,23%
20,CCc1ccc(-c2cn3cc(C)sc3n2)cc1,1.27%
21,Cc1ccc(-c2nc(NC(=O)c3sc(C)nc3C)sc2C)cc1,4%
22,CCN(CC)C(=O)c1ccc(NC(=O)C(F)(F)F)cc1,2.65%
23,COc1ccc(Br)cc1C1=N/C(=C\c2ccc(C)o2)C(=O)O1,1.45%
24,COCC(C)NC(=O)c1cc(-c2ccccc2OC)on1 (stereo not shown),0.0654%
25,CCCN(Cc1cc(Cl)ccc1O)CC1CC1,1.38%

row,Structure (SMILES),% Inhibition @ 10 uM
1,O=C(/C=C/c1ccccc1)C1(O)CCCCC1,10.2%
2,Cc1cc(-c2ccc(C)c(S(=O)(=O)NCCCc3ccccc3)c2)on1,-0.795%
3,C=CCNC(=O)c1ccccc1NC(=O)CN(c1ccc(C)cc1C)S(C)(=O)=O,2.86%
4,O=C(/C=C/c1ccco1)N1CCn2c(nc3ccccc32)C1,5.34%
5,CO/N=C(\C(=O)O)c1cn2ccccc2n1,-5.01%
6,CCN(Cc1ccccc1)C(=O)Cn1c(=O)cc(C)c2c(C)nn(-c3cccc(Cl)c3C)c21,4.97%
7,O=C(Cn1ccc2cc(S(=O)(=O)N3CCCC3)ccc21)NCCN1CCOCC1,1.41%
8,Cc1nn(-c2ccccc2)c(-n2cccc2)c1C(=O)N1CCC(C(=O)NC(C)(C)C)CC1,3.4%
9,O=C(NCc1ccccc1)c1cc(-c2ccncc2)nc2ccccc12,1.16%
10,O=C(Nc1cccc(C(F)(F)F)c1)Nc1ccc(Cl)cn1,1.7%
11,CS(=O)(=O)N(CC(=O)Nc1ccccc1C(=O)N1CCOCC1)c1ccccc1,-2.46%
12,CCC(C)NC(=O)C(NS(=O)(=O)c1cccc2nsnc12)c1ccccc1 (stereo not shown),-1.43%
13,Cc1ccc2c(c1)-c1onc(C(=O)N3C(C)CCCC3C)c1CO2 (stereo not shown),3.31%
14,CSc1ccc(C(=O)N[C@@H](Cc2cc(I)c(O)c(I)c2)C(=O)NCC#N)cc1,-1.41%
15,COc1ccc(C2OC[C@H]3O[C@H](O)[C@H](NC(C)=O)[C@@H](O)[C@@H]3O2)cc1 (stereo partly shown),-0.725%
16,O=C(Nc1ccccc1)c1ccccc1NC(=O)C1CC=CCC1C(=O)O (stereo not shown),5.08%
17,CCc1ccccc1N/C=C1/C(=O)NC(=O)N(c2ccccc2)C1=O,0.673%
18,COc1ccc(CN2CCN(C(=O)c3cccc(Cl)c3)CC2)c(OC)c1,2.98%
19,O=C(O)CCn1c(SCCOc2ccccc2)nc2ccccc21,-0.473%
20,CCCOc1ccc(/C=C(\C#N)c2nc3ccccc3n2C)cc1OC,-6.6%
21,COc1ccc([C@@H]2[C@H]3CCCC[C@]3(O)CCN2C)cc1OC,2.6%
22,CCc1nn(CC(=O)N2CCC(Cc3ccccc3)CC2)c(=O)c2cccn12,-7.52%
23,O=C(O)CN1C(=O)S/C(=C\c2ccc3c(c2)OCO3)C1=O,-3.45%
24,COc1cccc(/C=C2/NC(=O)NC2=O)c1OCC(=O)Nc1ccccc1,3.17%
25,COc1ccc(S(=O)(=O)N2CCN(Cc3cc(OC)c(O)c(OC)c3)CC2)cc1,-10.8%

row,Structure (SMILES),% Inhibition @ 10 uM
1,COc1ccc(NC(=O)CN(c2ccc(C(C)C)cc2)S(C)(=O)=O)c(OC)c1,-0.796%
2,CCCc1ccc(OCC(O)CN2CCOCC2)cc1 (stereo not shown),-0.424%
3,O=C(O)c1cc2cc(Br)ccc2oc1=O,1.91%
4,COc1ccc(CNC(=O)C2Sc3nnc(-c4ccccc4)n3NC2c2ccc(Cl)cc2)cc1 (stereo not shown),0.0289%
5,CCCCC/C=C/C(=O)Nc1cccc2ccccc12,0.00178%
6,CC(=O)c1ccc(NS(=O)(=O)c2ccc(S(=O)(=O)N3CCOCC3)cc2)cc1,-2.82%
7,CCc1c(-c2ccccc2)cn2c1-c1ccc(C)n1CC2,4.22%
8,COc1ccc(C(=O)C(OC(=O)c2cc3ccccc3oc2=O)c2ccccc2)cc1 (stereo not shown),12.3%
9,CC(C)CC(NC(=O)N1CCC(N2CCCCC2)CC1)C(=O)NC(CCc1ccccc1)CCS(=O)(=O)c1ccc2ccccc2c1 (stereo not shown),-7.36%
10,N=C(N)CCCOc1ccccc1-c1ccccc1,5.66%
11,CCOc1ccc(CCNC(=O)CCS(=O)(=O)Cc2ccc(C)cc2)cc1OCC,2.18%
12,[O-][n+]1onc2c1CCc1c-2nn(-c2ccc(Cl)cc2Cl)[n+]1[O-],7.73%
13,CCCCC1CCC(C(=O)Nc2nonc2C)CC1 (stereo not shown),-5.08%
14,Cn1c(=O)c2c(ncn2CC(=O)Nc2ccc(Oc3ccc(F)cc3)cc2)n(C)c1=O,4.94%
15,Cc1cccc(N2CCN(Cc3csc(-c4ccccc4)n3)CC2)c1C,0.98%
16,Cc1cccc(C)c1NC(=O)CN(C)S(=O)(=O)c1cc(Cl)ccc1Cl,-0.318%
17,Cc1ccc(-c2cc(C(=O)Nc3ccccc3C(N)=O)c3ccccc3n2)o1,8.49%
18,CC(=O)c1ccc(NC(=O)c2cnccn2)cc1,-0.641%
19,Clc1ccccc1N1CCN(C2CCC(c3ccccc3)CC2)CC1 (stereo not shown),1.67%
20,c1ccc(-c2ccc(-c3cnc(-c4ccccc4)o3)cc2)cc1,-2.55%
21,CC(=O)C1=C(O)C(=O)N(c2cccnc2)C1c1ccc2c(c1)OCO2 (stereo not shown),-4.69%
22,O=C(NCCCc1nc2ccccc2[nH]1)C12CC3CC(CC(C3)C1)C2,-12.1%
23,c1ccc(CSc2nc3ccccc3n3cnnc23)cc1,11.6%
24,CSc1ncc(C(=O)Nc2ccncc2)c(-c2ccccc2)n1,-3.19%
25,Cc1csc(NC(=O)CSc2c3c(nc4cc(Cl)ccc24)CCCC3)n1,-1.7%
